# Experimental data as given in PubChem BioAssay (Tox21).
# Several values for one entry are separate records, joined by “and”; a condition that tells them apart may be missing. Identical values can stand only once. Inconclusive results, whose numbers are uncertain, are shown with a selection of clear calls. For part of these data: Potencies of inconclusive entries are doubtful fits and often do not repeat. Activity calls are given as the source filed them. Unless noted, calls come from the whole dose curve; as a rule, active = well fitted curve in the direction sought with a large enough effect in the repeat runs; inconclusive = weak or mixed curves; inactive = no such curve, though single readings can be large; an effect the other way counts as inactive or inconclusive.
# Target: Androgen receptor (Homo sapiens) (UniProt P10275)
# Experiment: qHTS assay to identify small molecule agonists of the androgen receptor (AR) signaling pathway (AID 743036; active = well fitted activation curve with a large enough effect in the signal ratio in the repeat runs, with a control signal flat, not every such curve was filed as active; inconclusive = weak or mixed curves, or effect the other way; inactive = no such curve, though single readings can be large or run the other way; the % refers to the signal ratio)
# Conditions: HEK293 AR-UAS-bla GripTite, beta-lactamase FRET ratio, 16 h; activation: at 62.4 µM (top of the series) unless noted
# How it was run: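 Beta-lactamase under UAS control, stably integrated in HEK293 GripTite cells, reports receptor activation. After 16 h compound treatment, cells received FRET substrate for 2 h at room temperature before fluorescence reading.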
# % is set by controls: 0 for no effect and ±100 for the full control effect; tags give direction and shape of the fitted curve.
# Sequence of UniProt P10275 (P10275 whole entry, looked up): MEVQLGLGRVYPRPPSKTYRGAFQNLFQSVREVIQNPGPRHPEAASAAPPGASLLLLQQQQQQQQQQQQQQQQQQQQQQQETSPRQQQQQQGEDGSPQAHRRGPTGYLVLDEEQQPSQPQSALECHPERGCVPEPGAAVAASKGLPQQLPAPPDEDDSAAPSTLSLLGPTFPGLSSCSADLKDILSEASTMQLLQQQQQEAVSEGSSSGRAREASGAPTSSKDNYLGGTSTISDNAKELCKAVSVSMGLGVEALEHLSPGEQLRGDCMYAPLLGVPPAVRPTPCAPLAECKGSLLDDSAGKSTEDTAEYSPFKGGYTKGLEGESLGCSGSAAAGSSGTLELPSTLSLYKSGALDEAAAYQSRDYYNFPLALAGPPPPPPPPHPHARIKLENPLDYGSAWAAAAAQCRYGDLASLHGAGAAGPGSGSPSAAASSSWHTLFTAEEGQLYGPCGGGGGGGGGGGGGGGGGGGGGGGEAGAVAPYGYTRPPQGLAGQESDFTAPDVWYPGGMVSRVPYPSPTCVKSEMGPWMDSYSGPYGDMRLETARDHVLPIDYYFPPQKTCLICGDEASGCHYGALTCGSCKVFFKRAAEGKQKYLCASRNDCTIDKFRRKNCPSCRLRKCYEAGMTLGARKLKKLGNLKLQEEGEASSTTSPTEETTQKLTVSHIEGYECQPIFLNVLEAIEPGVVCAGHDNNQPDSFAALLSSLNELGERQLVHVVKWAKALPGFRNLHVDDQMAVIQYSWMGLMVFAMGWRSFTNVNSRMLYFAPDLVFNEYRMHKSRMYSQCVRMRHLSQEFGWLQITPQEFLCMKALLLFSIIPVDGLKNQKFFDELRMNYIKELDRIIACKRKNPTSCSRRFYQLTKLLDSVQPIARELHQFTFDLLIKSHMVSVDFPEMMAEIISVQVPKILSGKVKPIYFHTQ
row,SMILES,activation
1,O=c1cc(-c2ccccc2)oc2ccc3ccccc3c12,inconclusive: -0.0878%
2,CCCCCCc1ccc(O)cc1O,inconclusive: 14.6%
3,CCCCCCCCCCCCCOS(=O)(=O)O,inconclusive: 27.2%

# Tested on: not listed separately
# Experiment: qHTS assay to identify small molecule antagonists of the androgen receptor (AR) signaling pathway using the MDA cell line - cell viability counter screen (AID 743041; note: nearly all actives have a fitted effect of over 45% in size; note: potency is the fitted concentration of half-maximal effect)
# Conditions: MDA-kb2 viability, CellTiter-Fluor, 16 h, cells co-treated with R1881 androgen agonist; viability change, negative = cytotoxic: at 70.3 µM (top of the series) unless noted
# How it was run: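 MDA-kb2 AR-luc cells (MMTV-luciferase, AR/GR responsive) treated with compounds plus R1881 agonist for 16 h at 37C. CellTiter-Fluor added at 15.5 h; fluorescence read after 30 min in the same wells.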
SMILES,"viability change, negative = cytotoxic",Potency
CCCCCC(CO)CCC (stereo not given),inconclusive: 6.03%,–
NCCS(=O)(=O)O,–,"inconclusive: 31.8 µM [cytotoxic, partial curve, poor fit]"
Cc1cccc(N(C)C(=S)Oc2ccc3c(c2)CCC3)c1,–,"inconclusive: 33.5 µM [cytotoxic, partial curve, poor fit]"
Nc1ccc(N=Nc2ccccc2)c(N)n1,–,"inconclusive: 26.6 µM [cytotoxic, partial curve] and inconclusive: 48.8 µM [cytotoxic, partial curve]"

# Tested on: not listed separately
# Experiment: qHTS assay to identify small molecule antagonists of the thyroid receptor (TR) signaling pathway - cell viability counter screen (AID 743064); note: nearly all actives have a fitted effect of over 50% in size; note: potency is the fitted concentration of half-maximal effect
# Conditions: GH3.TRE-Luc viability, CellTiter-Fluor, 24 h; activity change, negative = cytotoxic: at 70.3 µM (top of the series) unless noted
# How it was run: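 Compounds were tested on GH3.TRE-Luc cells in the presence of T3 at 1 nM final. Following 23.5 h at 37 °C, cell viability was quantified by CellTiter-Fluor.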
SMILES,Potency,"activity change, negative = cytotoxic"
Cc1cccc(N(C)C(=S)Oc2ccc3c(c2)CCC3)c1,inactive,–
Oc1ccc2c(c1)Cc1ccccc1-2,"inconclusive: 77 µM [cytotoxic, single point]",–
CCCCCCOC(C)=O,inactive,–
CN(C(=O)CN(CCO)CC(=O)N(C)C(C)(C)Cc1ccccc1)C(C)(C)Cc1ccccc1,–,inconclusive: -40.1% [cytotoxic] [at 32.5 µM]
Nc1ccc(N=Nc2ccccc2)c(N)n1,inconclusive: 30.6 µM [cytotoxic],–
CC/C=C\C/C=C\C/C=C\CCCCCCCC(=O)O,"inconclusive: 13.3 µM [cytotoxic, single point]",–
CCCCCCc1ccc(O)cc1O,"inconclusive: 33.5 µM [cytotoxic, single point] and active: 54.6 µM and active: 54.5 µM",–
C1CN(SSN2CCOCC2)CCO1,"active: 67.9 µM and inconclusive: 61.1 µM [cytotoxic, single point]",–
